PMC4336329 (PLoS ONE, 2015)
Among all 310,000 compounds or so, about 2,200 (0.71%) showed an effect of 50% or more. Effects have a minus sign here. The list shows a part of the results.

Each compound was assayed against human ether-à-go-go-related gene (hERG) potassium channel (human, UniProt Q12809) (assay: primary screen, population patch clamp on CHO cells stably expressing hERG).
Chain of human ether-à-go-go-related gene (hERG) potassium channel (Q12809 whole entry, looked up): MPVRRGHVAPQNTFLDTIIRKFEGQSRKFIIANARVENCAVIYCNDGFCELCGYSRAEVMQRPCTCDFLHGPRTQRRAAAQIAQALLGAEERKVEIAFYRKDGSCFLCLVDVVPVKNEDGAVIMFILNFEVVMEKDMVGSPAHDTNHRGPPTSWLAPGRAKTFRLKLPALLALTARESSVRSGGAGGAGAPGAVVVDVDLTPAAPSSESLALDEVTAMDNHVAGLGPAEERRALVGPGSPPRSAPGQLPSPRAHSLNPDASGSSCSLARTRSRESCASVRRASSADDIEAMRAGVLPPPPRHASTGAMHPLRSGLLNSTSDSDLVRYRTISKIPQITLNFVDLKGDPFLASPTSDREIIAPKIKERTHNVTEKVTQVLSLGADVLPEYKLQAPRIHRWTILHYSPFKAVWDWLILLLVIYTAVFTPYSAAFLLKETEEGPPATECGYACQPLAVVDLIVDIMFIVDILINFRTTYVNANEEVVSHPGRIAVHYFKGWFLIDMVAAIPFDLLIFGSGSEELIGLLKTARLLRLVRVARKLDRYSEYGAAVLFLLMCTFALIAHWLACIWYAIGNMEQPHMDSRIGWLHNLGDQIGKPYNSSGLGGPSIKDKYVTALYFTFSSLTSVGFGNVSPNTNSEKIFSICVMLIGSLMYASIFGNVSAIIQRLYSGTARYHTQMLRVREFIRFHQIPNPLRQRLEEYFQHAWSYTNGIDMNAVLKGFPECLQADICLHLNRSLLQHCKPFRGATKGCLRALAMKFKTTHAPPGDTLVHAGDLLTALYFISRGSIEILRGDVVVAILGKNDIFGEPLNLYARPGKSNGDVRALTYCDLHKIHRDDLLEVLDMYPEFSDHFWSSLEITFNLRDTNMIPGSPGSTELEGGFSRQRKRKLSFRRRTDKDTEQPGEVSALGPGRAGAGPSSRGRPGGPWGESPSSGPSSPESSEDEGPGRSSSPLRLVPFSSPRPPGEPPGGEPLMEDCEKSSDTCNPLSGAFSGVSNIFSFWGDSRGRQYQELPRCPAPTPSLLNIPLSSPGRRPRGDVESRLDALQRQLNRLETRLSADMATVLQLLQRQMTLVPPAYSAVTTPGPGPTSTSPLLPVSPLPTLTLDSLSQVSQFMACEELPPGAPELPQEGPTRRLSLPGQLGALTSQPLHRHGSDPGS

SMILES	hERG current change (%, negative = inhibition) at 1uM [%]
COc1cc(OC)cc(C(=O)NNC(=O)CCc2ccccc2)c1	14.7
O=C(N/N=C/c1sc(=O)[nH]c1-[n+]1ccccc1)c1ccccc1[O-]	13.2
O=C(Oc1cccc(N2C(=O)CCC2=O)c1)C1CC(=O)N(c2ccc(F)cc2)C1 (stereo not drawn)	8.48
Clc1cccc(Oc2cnns2)c1Cl	4.25
O=S(=O)(c1ccccc1)N1N=C(c2cccs2)CC1c1cccc(O)c1 (stereo not drawn)	18
Nc1cc(N)nc(SCC(=O)N2CCc3ccccc32)n1	6.36
COc1cc(/C=N/NC(N)=S)ccc1OCC(=O)Nc1ccc(C)cc1	10.8
CCC(=O)NC(=S)Nc1ccccc1C(F)(F)F	7.06
O=C(NNc1ccccc1)C(=O)NNS(=O)(=O)c1ccc([N+](=O)[O-])cc1	10.9
CCN(c1ccccc1)S(=O)(=O)c1ccc(N2CCN(c3ccccc3O)CC2)nc1	6.62
COc1ccccc1N1CCN(c2cc(N3CCCC3)nc(C)n2)CC1	-26.7
Brc1ccc(C2=Nn3c(Cn4nnc5ccccc54)nnc3SC2)cc1	16.3
COc1ccc(C(=O)NC(=S)NC(C)(C)C)cc1Br	8.25
CCc1cccc(NC(=O)COC(=O)c2cc([N+](=O)[O-])ccc2N2CCOCC2)c1	2.57
Cc1ccc(S(=O)(=O)n2nc(C)cc2N)cc1	4.89
CCc1cccc2c(C(=O)CSc3nncn3-c3ccc(OC)cc3)c[nH]c12	16.2
CC(=O)Nc1ccccc1C(=O)N1CC(C)OC(C)C1 (stereo not drawn)	11.6
CN1C(=O)CC2(CC(=O)N(Cc3ccccc3)C2)C1=O (stereo not drawn)	12.3
COc1ccc(C(O)c2nc3ccccc3n2C(C)C)cc1 (stereo not drawn)	10
CC(NC(=O)Nc1ccc(Cl)cc1)c1ccccc1 (stereo not drawn)	18.3
Cc1cc(C)nc(SC2CCCCC2NS(=O)(=O)c2ccccc2)n1 (stereo not drawn)	4.72
CS(=O)(=O)N1CCCC(C(=O)Nc2ccccc2C(F)(F)F)C1 (stereo not drawn)	12.9
NS(=O)(=O)c1ccc(NC2=CC(=O)C(=O)c3ccccc32)cc1	14.2

SMILES	hERG current change (%, negative = inhibition) at 1uM [%]
COc1ccccc1NC(=O)NCCCCc1ccccc1	-0.0082
COC(=O)c1c(N)sc2c1CCN(c1ncc(C(F)(F)F)cc1Cl)C2	4.59
N#Cc1ccc(C(=O)N(Cc2ccco2)c2c(N)n(Cc3ccccc3)c(=O)[nH]c2=O)cc1	7.93
O=C(c1ccc(Cl)c(S(=O)(=O)N2CCOCC2)c1)N(c1ccccn1)C1CCCCC1	0.878
CCc1ccc(CN2CCC(n3nccc3NC(=O)c3ccccc3Cl)CC2)cc1	-92.3
O=C(Cn1cnc2c(oc3nc4c(cc32)CCCC4)c1=O)Nc1ccccc1	10.2
Oc1ccc(-c2nc(-c3ccc(O)c(O)c3)cs2)cc1	11.3
Cl.N/C(=N\N=C/c1ccc(F)cc1)N/N=C\c1ccc(F)cc1	7.32
CCOc1cc(/C=N\O)cc(Cl)c1OCC	7.97
CC1CCCCC1Nc1nc2ccc(Cl)cc2n2cnnc12 (stereo not drawn)	11.9
CC1CCCCN1C(=O)CSc1nnc(-c2ccco2)n1C (stereo not drawn)	6.97
CC1CCCN(S(=O)(=O)c2cccc(C(=O)NCc3ccco3)c2)C1 (stereo not drawn)	-3.21
CC1=C(C(=O)OCC2CCCO2)C(c2ccc(Cl)c(Cl)c2)NC(=O)N1 (stereo not drawn)	4.78
CN(C)c1ccc(NC(=O)c2ccc3nsnc3c2)cc1	-9.11
O=C(CCCCn1c(=O)[nH]c2ccsc2c1=O)NCc1cccnc1	-0.633
O=C(NCCN1CCOCC1)C(=O)NCC1OCCN1S(=O)(=O)c1ccccc1 (stereo not drawn)	11.8
O=c1cc2c(nn1Cc1c(Cl)cccc1Cl)-c1ccccc1CC2	10
Nc1ncc(-c2nnnn2-c2ccc(Cl)cc2)c(-c2ccc(Cl)cc2)n1	3.94
Cc1ccc(NC(=O)CN(C)C(=O)COC(=O)c2oc3ccccc3c2C)cc1	12.3
O=C(COC(=O)Cc1ccc(Br)cc1)NCc1ccc(F)cc1	6.09
O=C(CSc1ncnc2c1cnn2Cc1ccccc1)Nc1ccc2c(c1)OCCO2	8.89
Cc1ccc(CNCc2cc(Cl)ccc2O)cc1.Cl	4.69
